# From the supplement of paper PMC10126150
# Sequences with one replicate were seen in a single cluster, so their values are uncertain.
# Test system: ATP
# Experiment: switch fluorescence ratio, 500 uM ATP over buffer (Cy3 cluster intensity, sum of 5 cycles each) (fold (ratio)); higher = stronger signal-on switching upon ATP binding; sequences stand for … in TCGTCGGCAGCGTCAGATGTGTATAAGAGACAGTTTTTTTTTTTTTTTTTTTTTTTTT…TC
# Details: aptamer strand: ATP DNA aptamer (quencher-CACCTGGGGGAGTATTGCGGAGGAAGG + anchor), 100 nM annealed; ATP concentration: 500 uM; one replicate
# Summary of the method: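 Switching-strand clusters labelled with Cy3 on a modified Illumina MiSeq flow-cell were annealed to 100 nM quencher-labelled ATP aptamer, imaged in selection buffer, and re-imaged after 15 min with 500 uM ATP at 22 °C. This was done over five cycles with NaOH stripping and re-annealing in between. The fluorescence ratio is summed target-cycle over summed buffer-cycle Cy3 intensity per cluster, averaged per switch-domain sequence, excluding clusters outside 100-1000 RFU.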
# 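Further: ATP exposure 15 min at 22 °C before imaging.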
row,Sequence,switch fluorescence ratio
1,TTCCTAGTCA,1.02
2,ACGTCATCTT,1.11
3,GCGCTGATAT,1.21
4,GTGTTAGGCA,1.03
5,CACCAGGGAT,1.4
6,CGGGCGATTA,1.05
7,GGGTAAGACT,1.04
8,TTTTTCTTTA,1
9,ACTTTGTGCA,0.967
10,ATCTGTTTGG,0.977
11,TCGGGCACGA,0.975
12,GTGTGGGTTT,1
13,GTATCCGGGT,0.933
14,ACGGAGTGTG,1.04
15,GCGTTTATAA,1.02
16,CAGCCCGAAG,1.06
17,GGGTTAGAAT,1.06
18,CTGTGATCGG,0.998
19,AACCGAGCCA,1.04
20,CTGAACTTGA,1.01
21,TATTACGAGC,1.02
22,CAGTCAGCC,1.02
23,ATACCATGCT,0.998
24,TCCAAGTTGC,1.1
25,TGGAGAAACG,0.974

row,Sequence,switch fluorescence ratio
1,AGCCTGCATG,0.973
2,CATACGGGGA,1.09
3,GCAAAACCTT,1.54
4,TGGGGTCCGT,1.01
5,GCGATCTTCT,1.04
6,TTTACGTAAC,2.14
7,TTTACATGTA,0.99
8,ATGTCGTAGC,1.01
9,CCGCGTGTGA,1.06
10,TTTTCCTCAA,1.11
11,GCCACCGCCG,1.18
12,CGCCCGGGAG,1.11
13,CGAGCGGTCT,1.08
14,CTCGCGTTCA,1.03
15,GCAAAATCCT,1.15
16,GGGAAAAAT,0.923
17,GTTTCTCTAA,1.03
18,GTATTCGTAC,0.958
19,GATGTCATAC,1.51
20,GTGACTCATC,1.01
21,TCACGTACT,1.79
22,TCCTAACTGG,0.967
23,TGTGCCTCGA,0.983
24,AGCGATTGTT,0.993
25,TAATCGATA,1.01

row,Sequence,switch fluorescence ratio
1,CGTGTTATTC,0.985
2,GTCGACCTCG,1
3,GGGAGTTTCT,0.975
4,GACAAATACC,1.18
5,GCTATGCCTG,0.997
6,ACTCTGTAAT,1.86
7,CAATTATGCT,1.01
8,AGGTTGACTC,0.984
9,CGAGTAGGTC,1.01
10,GCGTTAAATG,0.987
11,GGCTCTACCT,1.12
12,CCGGGTATCG,1
13,TCAAGGACTT,0.993
14,GGTAGTCTGG,0.966
15,TTTTGCACGT,1.01
16,CGGAAATCAC,1.08
17,GCCTACGGG,1.06
18,CCCGCAAATT,4.9
19,TTCCGCCATG,1.34
20,TGCCTGATCG,0.985
21,CGCTTTGTTC,1.04
22,AGACTTGGCT,1.02
23,TCTTTGAGCA,0.993
24,ACGACAATAA,3.3
25,TAGTAGCTAG,0.985

row,Sequence,switch fluorescence ratio
1,TATAGCGAGG,1.01
2,GTGTACGGCG,1.04
3,TATTTTTGTC,1.02
4,CTGTATATTG,0.964
5,GAGCATTTAA,1.04
6,ATGTTCCGAC,1.39
7,TGATGCGAGA,0.984
8,GGACCTCATG,1.05
9,AGAGTTGCGA,1.02
10,CACACCTGGA,1.11
11,ATTGAGTTAC,1.02
12,TGGGTTGTCT,0.995
13,TCTACGTT,1.04
14,AAGCGTGTCC,0.993
15,TTGTACTGGT,1.02
16,CGTTGGTTAC,0.993
17,TCAATAGGTA,0.986
18,GCAGAGCGCG,0.994
19,GGCCATTCTC,0.957
20,CACTTAGCAT,1.14
21,GTTGCTGAAC,1.03
22,GACACTGGT,1.04
23,ACCCGCAGGG,1.01
24,AGTATGGTCT,1.02
25,ACACTCCTAG,1.01

row,Sequence,switch fluorescence ratio
1,GACCTGCGTG,1.01
2,TGCCTCTGTT,1.05
3,TAATCTTTCT,1.01
4,TCTTAGCCAT,1.26
5,TGATCATAAA,0.955
6,TCTTACACGG,1.02
7,AGAAGGAAGG,1.03
8,TGGTGGAGGC,1.06
9,TTTACGGACT,1.22
10,AGGTAGCCAT,0.996
11,TCGGCGACGT,0.98
12,TGTGCCAGGT,1.08
13,AGGGACCCAC,1.21
14,CTAGAAGGAC,1.04
15,GTGGATCCTG,1.04
16,AGAGGGAGTC,1.05
17,CTAATTAACT,0.984
18,AGGTTCGCGC,1.03
19,CCGCGACGAG,2.32
20,TTAACCTGGT,1.06
21,TAATCCCAGC,1.03
22,GCAGTTTGTC,0.87
23,GTCAGATAAT,0.96
24,GACGCAACGG,2.17
25,GTTGAAGTTC,1.02

row,Sequence,switch fluorescence ratio
1,TTTACCCTGC,1.07
2,GCTTCGTCGC,1.2
3,TCAGTCAAAT,0.959
4,AGAATTAACG,0.932
5,GTGTCAGCTT,1.01
6,TAGAGGCGG,0.981
7,CAATTTAGTT,0.977
8,ACAGTAATGT,1.02
9,CCAATAACT,1.04
10,TTCATTGGCG,1.06
11,CGGGGCCCTT,0.966
12,CATCACGAAA,1.21
13,CCAAATTCAG,0.988
14,ACTCCACGCT,1.26
15,AATCCTTACA,0.981
16,AGTCCTAAGG,0.958
17,GACTATAGAA,1.06
18,CAGAAAAGTT,0.973
19,GGGTGGATGC,1
20,CTTATGGGCA,1.01
21,GGTATTAATG,1
22,AGAAGCGTAT,1.06
23,CCCGTAGAGG,1.02
24,TAGGTGTGGA,0.997
25,TATAACCACA,1.07

row,Sequence,switch fluorescence ratio
1,ATGTGGGACT,1.02
2,ATTAATTGGT,0.975
3,AAAGCGAAGC,1
4,TTTGTGAATG,0.979
5,TGAATTAACG,1.08
6,TAGTTTCTA,1.02
7,ACTGAATTTT,1.02
8,TACGTACTGT,1.51
9,AGTAGCGGTA,0.98
10,GTATCTACCT,1.14
11,AGCCCCGGGA,0.959
12,CGGAAACTGG,0.984
13,GAGGCATCAC,1.36
14,ACCCCGTGTC,1.16
15,AAAGTGTACT,0.975
16,AATATGGGA,0.966
17,CTTAGGAATT,1.02
18,TTTGCACTCG,0.995
19,GATATTTACG,0.977
20,TTGTGAAAA,1.09
21,GTAGGGAATG,1
22,TTTGATCTCA,0.972
23,GGCCATTTCG,0.997
24,GGAGACGATT,1.01
25,GTCCTTAGTA,1.02

row,Sequence,switch fluorescence ratio
1,CCAATAAGA,1.24
2,GATCGGAAGG,0.953
3,TGCGTACATA,1.08
4,CTTAAAACAT,0.972
5,AGGTAACGTG,0.95
6,GCAGGTGAG,1.13
7,CACCCGCCTG,1.17
8,AAACGTGTGC,1.03
9,GGGGGCTGGC,0.997
10,CTTGCTGTAG,1.07
11,TGAGCATACT,2.96
12,CCCCTAAAGC,1.02
13,ATGGCCACAT,0.998
14,GTAGGTGTAG,1.01
15,AGAGAGGTGT,1.03
16,CGAATTATTG,0.97
17,CGATTCCTT,1.06
18,GGTAGTCGG,1.01
19,TTCAGTATA,1.13
20,AAAATAGTGC,1.06
21,ACTAGGGTGT,1.07
22,CAACGTGGTA,1.01
23,GTGTTGCTTT,1.01
24,TTCATTCTGG,0.996
25,GTTGGCGATG,0.942
